Measurements: PubChem BioAssay AID1508649 (National Center for Advancing Translational Sciences (NCATS), 2021)
Screen size: about 43,000 compounds; about 830 (1.9%) were called active. Inconclusive results, whose numbers are uncertain, are shown with a selection of clear calls. How the source made its calls: active means clear falling dose curves in both reporters; inconclusive means both reporters move, but less clearly or upward; inactive means either reporter flat; the % is the NLuc reporter signal. No potency is given beside an inconclusive call; the fits are too rough.

Experiment: Cell-based coincidence reporter assay to measure PMP22 gene transcription in S16 Pmp22-F2sN cells - Primary screen
Details: S16 Pmp22-F2sN Schwann cells (luciferase reporters placed in the Pmp22 gene), FLuc/NLuc coincidence luminescence, 24 h; measured here: NLuc reporter readout, at 57.5 µM (top of the series); activity change, negative = inhibition: at the top concentration
Procedure, shortened: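 Reporter cells (S16 Pmp22-F2sN, 500–1,000 per well) exposed to compounds for 24 h, 37C, 5% CO2; lysis with FLuc read after 10 min, then Stop&Glo and NLuc read after 10 min.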
On the % scale 0 is the no-effect control and ±100 the full control effect; potency means the concentration at half of the fitted maximal effect; tags describe the fitted curve by direction and shape.

| Compound | Potency | activity change, negative = inhibition |
| --- | --- | --- |
| Cc1cccc(OCCCC(=O)Nc2sc3c(c2C(N)=O)CCC(C)C3)c1 (stereo unspecified) | inconclusive [phenotype inactive, single point] | – |
| O=C(CSc1nc2nccnc2c(=O)n1CCc1c[nH]c2ccccc12)Nc1ccccc1F | inconclusive [phenotype inactive, partial curve, poor fit] | – |
| Cc1ccc(CNC(=O)Cn2c3ncccc3c(=O)n2-c2ccccc2)cc1 | inconclusive [phenotype inactive, full curve, poor fit] | – |
| Cc1nn(-c2ccc(F)cc2)c(-n2cccc2)c1C(=O)N1CCN(c2ccc(F)cc2)CC1 | – | inactive: -2.77% |
| COc1ccc(C2C=C(c3cccc(OC)c3)Nc3c(C(=O)Nc4ccccc4)cnn32)cc1 (stereo unspecified) | inconclusive [phenotype inactive, single point] | – |
| CC(=O)N1CCc2c(sc3c2c(=O)n(-c2ccccc2)c(=O)n3CC(=O)Nc2ccccc2)C1 | inconclusive [phenotype inactive, partial curve, poor fit] | – |
| Cc1ccc(S(=O)(=O)Cc2ccc(C(=O)N3CCN(c4cccc(C)c4C)CC3)o2)cc1 | active: 13.9 µM | – |
| Cc1ccccc1NC(=O)Cn1c(SCC(=O)Nc2ccc(F)cc2)nc2ccccc21 | inconclusive [phenotype inactive, single point] | – |
| CCOc1ccc(CCNC(=O)CCc2cn(Cc3ccccc3F)c3ccccc23)cc1OCC | inconclusive [phenotype inactive, partial curve, poor fit] | – |
| CC(=O)c1cccc(NC(=O)c2cc(-c3ccc4c(c3)OCCO4)on2)c1 | – | inactive: 6.96% |
| Cc1nn(C)c2c1c(C(F)(F)F)cc(=O)n2CC(=O)NC(C)(C)C | – | inactive: -22.1% |
| Cc1ccc(-n2c(=O)c3ccc(C(=O)NCc4ccccc4Cl)cc3n(CC(N)=O)c2=O)cc1 | inconclusive [phenotype inactive, single point] | – |
| Cc1ccc(CNC(=O)Cn2cc(C(=O)c3ccc(Cl)cc3)c(=O)c3ccc(C)nc32)cc1 | inconclusive [phenotype inactive, single point] | – |
| CC(=O)Nc1cccc(NC(=O)CSc2nccn2C2CCCC2)c1 | inconclusive [phenotype inactive, single point] | – |
| Cc1cc(C)c(NC(=O)C(=O)NCC(c2cccnc2)N2CCN(c3ccccc3F)CC2)c(C)c1 (stereo unspecified) | inconclusive [phenotype inactive, partial curve, poor fit] | – |
| CN1C(=O)Cc2cc(S(=O)(=O)CCC(=O)N3CCN(c4ccc(Cl)cc4)CC3)ccc21 | inconclusive [phenotype inactive, single point] | – |
| Cc1ccc2c(C)c(C(=O)NCC(c3ccc(Cl)cc3)N3CCOCC3)oc2c1 (stereo unspecified) | inconclusive [phenotype inactive, single point] | – |
| COC(=O)c1ccccc1NC(=O)c1oc2ccc3c(c2c1C)C(=O)CC(C)(C)O3 | – | inactive: -17.6% |

| Compound | Potency | activity change, negative = inhibition |
| --- | --- | --- |
| CCC(O)c1nc2ccccc2n1CCOc1cc(C)cc(C)c1 (stereo unspecified) | inconclusive [phenotype inactive, single point] | – |
| CCOC(=O)c1cc2c(=O)n3ccccc3nc2n(CC2CCCO2)c1=NC(=O)c1cc(C)cc(C)c1 (stereo unspecified) | active: 1.5 µM | – |
| CCc1ccc(CNC(=O)c2cc3c(s2)-c2ccccc2OC3)cc1 | inconclusive [phenotype inactive, single point] | – |
| O=c1oc2ccc3ccccc3c2cc1-c1nnc(Nc2cc(C(F)(F)F)ccc2Cl)s1 | inconclusive [phenotype inactive, single point] | – |
| CC(C)c1cnc2c(c1SCC(=O)Nc1cccc([N+](=O)[O-])c1)c(=O)n(C)c(=O)n2C | inconclusive [phenotype inactive, single point] | – |
| COc1cc(NC(=O)Cn2ccn(-c3cc(C)cc(C)c3)c(=O)c2=O)cc(OC)c1 | – | inactive: -3.06% |
| CCc1ccc(NC(=O)CC2C(=O)N(c3ccc(C)cc3)C(=O)N2C2CCCC2)cc1 (stereo unspecified) | inconclusive [phenotype inactive, single point] | – |
| COc1cc2nc(Nc3cccc(C)c3)nc(N)c2cc1OC | inconclusive [phenotype inactive, single point] | – |
| COC(=O)c1ccc(NS(=O)(=O)c2ccc3[nH]c4c(c3c2)CCCC4)cc1 | inconclusive [phenotype inactive, single point] | – |
| COc1ccc(NC(=O)c2sc3nc4c(cc3c2N)CCCCCC4)cc1 | inconclusive [phenotype inactive, single point] | – |
| Cc1cc(C)c(NC(=O)CSc2nccn2-c2cccc(Cl)c2)c(C)c1 | inconclusive [phenotype inactive, single point] | – |
| Cc1cc(OCCn2c(CCNC(=O)C3CCCCC3)nc3ccccc32)ccc1Cl | inconclusive [phenotype inactive, single point] | – |
| CCCN(CCC)CCCNC(=O)C1CCN(c2nc3ccc(CC)cc3s2)CC1 | inconclusive [phenotype inactive, single point] | – |
| CCOc1ccc(CCNC(=O)c2cc3c(=O)n(C)c4ccccc4c3n2C)cc1OCC | inconclusive [phenotype inactive, single point] | – |
| CCOc1ccc(CNC(=O)c2ccccc2NC(=O)c2nsc3ccccc23)cc1 | inconclusive [phenotype inactive, single point] | – |
| COc1cccc(NC(=O)CSc2ncc3c(n2)-c2ccc(Cl)cc2N(C)S3(=O)=O)c1 | active: 2.53 µM | – |
| Cc1ccc(OCC(=O)Nc2ccc3nc(SCC(=O)Nc4ccc(C)cc4C)sc3c2)cc1 | inconclusive [phenotype inactive, single point] | – |
| CCCC1=Nc2cc(C(=O)NCCc3ccc(OCC)cc3)ccc2Sc2ccccc21 | inconclusive [phenotype inactive, single point] | – |
